Measurements taken from publication PMC4336329 (PLoS ONE, 2015).
The campaign covered roughly 310,000 compounds. About 2,200 (0.71%) showed an effect of 50% or more. Effects have a minus sign here. The list shows a part of the results.

What follows are compounds tested against human ether-à-go-go-related gene (hERG) potassium channel (human, UniProt Q12809) (assay: primary screen, population patch clamp on CHO cells stably expressing hERG).
Sequence of human ether-à-go-go-related gene (hERG) potassium channel (Q12809 whole entry, looked up): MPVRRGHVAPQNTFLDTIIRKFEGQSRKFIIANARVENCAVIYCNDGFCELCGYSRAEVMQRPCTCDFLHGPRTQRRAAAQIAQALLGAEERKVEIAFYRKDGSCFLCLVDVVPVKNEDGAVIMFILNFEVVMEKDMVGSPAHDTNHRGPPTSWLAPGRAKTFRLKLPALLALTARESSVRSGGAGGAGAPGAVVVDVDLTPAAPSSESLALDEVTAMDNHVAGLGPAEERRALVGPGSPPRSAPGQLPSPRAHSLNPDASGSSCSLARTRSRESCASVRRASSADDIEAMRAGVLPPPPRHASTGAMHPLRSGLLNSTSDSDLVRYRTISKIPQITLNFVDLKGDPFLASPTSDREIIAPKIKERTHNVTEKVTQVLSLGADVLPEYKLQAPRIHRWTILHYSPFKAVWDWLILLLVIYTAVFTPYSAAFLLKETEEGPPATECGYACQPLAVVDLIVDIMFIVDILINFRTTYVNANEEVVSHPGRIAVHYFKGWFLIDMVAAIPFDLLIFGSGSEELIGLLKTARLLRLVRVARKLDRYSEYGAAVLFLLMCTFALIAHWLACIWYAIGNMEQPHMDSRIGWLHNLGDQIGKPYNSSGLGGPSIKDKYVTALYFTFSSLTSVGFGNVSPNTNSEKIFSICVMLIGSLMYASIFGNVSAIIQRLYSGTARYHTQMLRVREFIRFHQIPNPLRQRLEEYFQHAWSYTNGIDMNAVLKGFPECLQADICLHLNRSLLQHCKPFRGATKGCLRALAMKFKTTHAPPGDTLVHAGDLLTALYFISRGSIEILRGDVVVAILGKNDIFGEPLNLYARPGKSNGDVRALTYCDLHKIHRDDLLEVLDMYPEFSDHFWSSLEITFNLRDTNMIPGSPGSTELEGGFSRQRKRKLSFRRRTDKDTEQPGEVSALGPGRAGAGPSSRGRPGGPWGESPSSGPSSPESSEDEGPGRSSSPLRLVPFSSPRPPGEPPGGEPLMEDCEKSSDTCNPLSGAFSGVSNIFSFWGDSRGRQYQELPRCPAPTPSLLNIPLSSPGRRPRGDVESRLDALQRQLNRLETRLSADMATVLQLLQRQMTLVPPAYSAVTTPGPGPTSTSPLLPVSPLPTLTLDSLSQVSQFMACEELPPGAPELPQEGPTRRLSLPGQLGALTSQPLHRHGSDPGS

| SMILES | hERG current change (%, negative = inhibition) at 1uM |
| --- | --- |
| COc1ccccc1-c1cc(C(=O)N2CCN(S(=O)(=O)c3ccc(C)cc3)CC2)[nH]n1 | 6.32% |
| COc1ccc(-c2ccc(SCC(=O)N3CC(=O)Nc4ccccc43)nn2)cc1 | -16.5% |
| Cc1cnc(C(=O)OCC(=O)Nc2ccc3c(c2)OCCO3)cn1 | 8.91% |
| CCn1c(=O)c2ccccc2n(CC(=O)NCCC2=CCCCC2)c1=O | 12.1% |
| O=S(=O)(c1ccc(OC(F)(F)F)cc1)N1CCC(O)(c2cccc(C(F)(F)F)c2)CC1 | 7.24% |
| O=C(Cn1c(=O)sc2ccccc21)NCc1ccco1 | 9.89% |
| O=C1OC(N2CCN(C(=O)C3CCCO3)CC2)c2ccccc21 (centres unmarked) | 11.7% |
| Cc1ccc(CNC(=O)CN(C)S(=O)(=O)c2ccc3c(c2)n(C)c(=O)c(=O)n3C)cc1 | 13.1% |
| O=C1CCC(C(=O)Nc2nnc(C3CC3)s2)=NN1 | 11.5% |
| Cc1ccc(Cn2c(C(=O)O)cc3sccc32)cc1 | 5.78% |
| Cc1ccc(CNC(=O)C2CCCN(c3nc4ccsc4c(=O)s3)C2)cc1 (centres unmarked) | 5.42% |
| Cc1ccc(S(=O)(=O)N2CCN(C(=O)c3ccc4ccccc4n3)CC2)c(C)c1 | 1.43% |
| COc1ccc(-n2c(SCC(=O)Nc3cc(C)on3)nc3c([nH]c4ccccc43)c2=O)cc1 | 16% |
| Cc1nnc(-c2ccccc2)[nH]c1=O | 6.59% |
| CCOC(=O)C(CCCOc1cccc(CC)c1)C(=O)OCC | 12.9% |
| O=C(O)c1ccc2c(c1)C(=O)N(c1ccc(Cl)cn1)C2=O | 9.94% |
| Cc1ccc2ncc(NC(=O)c3ccc(F)cc3)c(=O)n2c1 | 2.57% |
| Cc1ccc(SCC(=O)O/N=C(\N)c2ccncc2)cc1 | 5.26% |
| COC(=O)[C@@H]1Cc2c([nH]c3ccccc23)C2CCC(=O)N21 (some centres unmarked) | 13.5% |
| Cc1ccc(-c2n[nH]c(=S)n2/N=C/c2sccc2C)cc1 | 14% |
| O=C(CSc1nc2ccccc2c(=O)[nH]1)Nc1ccc(N2CCOCC2)c(Cl)c1 | 16.4% |
| O=C(NC1CCCCCC1)c1ccc(-n2cnnc2)cc1 | 12.8% |
| NS(=O)(=O)c1ccc(CCNc2ccc(C(F)(F)F)cn2)cc1 | 9.53% |

| SMILES | hERG current change (%, negative = inhibition) at 1uM |
| --- | --- |
| CCOc1ccccc1N1CC(C(=O)N(CC)CC(=O)Nc2ccc3c(c2)OCCO3)CC1=O (centres unmarked) | 4.09% |
| N#C/C(=C(/O)CCl)c1nc2c(s1)CCc1ccccc1-2 | 11.2% |
| COc1ccc(CN2CCNC(=O)C2CC(=O)NCCc2nc(C)c(C)s2)c(OC)c1 (centres unmarked) | 10.3% |
| Cl.NC(Cc1ccccc1)C(=O)N1CCCCC1 (centres unmarked) | 1.55% |
| COc1ccc2c(c1)cc(C(=O)N/N=C/c1c(O)c(C(=O)O)cc3ccccc13)n2C | 13.9% |
| COCCCn1c(=O)c2ccccc2n(Cc2cccc(C)c2)c1=O | 12.9% |
| Cc1ccc(OCc2n[nH]c(=S)n2-c2ccc(Cl)cc2)cc1 | 11% |
| COc1ccc(C2CC(c3cccs3)=NN2S(C)(=O)=O)cc1OC (centres unmarked) | 7.26% |
| Cc1cccc2nc(CSc3nc4cc([N+](=O)[O-])ccc4s3)cn12 | 1.31% |
| Nc1ccc2c(c1)C(=O)c1ccccc1-2 | 14.3% |
| CCOc1ccccc1N(CC(=O)N1CCCC1)S(C)(=O)=O | 16.3% |
| CCCCCC(=O)Nc1ccc(N2CCN(C(=O)c3ccccc3)CC2)cc1 | -21.9% |
| CCOC(=O)c1cnc2nc(Cc3ccccc3)[nH]n2c1=O | 8.72% |
| CC1(C)Cc2ccccc2C(c2cc3ccccc3oc2=O)=N1 | 1.69% |
| O=c1[nH]ncn1-c1ccccc1C(F)(F)F | 10.3% |
| O=C(N/C(=C\c1ccc(Br)cc1)c1nc2ccccc2[nH]1)c1ccco1 | 10.1% |
| Cc1ccc2cc(CN(CCCO)S(=O)(=O)c3cccc4nsnc34)c(=O)[nH]c2c1 | 5.74% |
| CCOc1ccc(S(=O)(=O)Nc2cccc(-c3ccc(N4CCCCCC4)nn3)c2)cc1 | 19% |
| CC(=O)Oc1ccc(N(c2ccccc2)S(=O)(=O)c2ccc(C)cc2)cc1 | 6.3% |
| Cc1ccc(C)c(C(=O)Nc2c(C(N)=O)oc3ccccc23)c1 | 4.71% |
| Cc1cc(S(=O)(=O)NC2CC(C)(C)NC(C)(C)C2)c(Cl)cc1Cl | 7.69% |
| COCCCNC(=O)Cn1nc(-c2ccc(C)cc2)ccc1=O | 13.7% |
| Nn1c(SC/C=C/c2ccccc2)nnc1-c1ccco1 | 2.02% |

| SMILES | hERG current change (%, negative = inhibition) at 1uM |
| --- | --- |
| COCc1nc(-c2ccc(-c3ccc(C)cc3)nc2OC)no1 | 4.81% |
| COc1ccccc1NC(=O)CC(=O)CSc1nnc(-c2ccc(C)cc2)n1-c1ccccc1 | 13.8% |
| COc1ccc(S(=O)(=O)N2CCC(C(=O)N[C@@H](C)C(=O)NC3CCCC3)CC2)cc1 | 16.6% |
| CCCCN(C)C(=O)c1cc2cc3cc(OC)ccc3nc2o1 | -0.194% |
| C=CCn1c(SCCOc2ccc(OC)cc2)nnc1C(CO)NC(=O)c1ccc(OC)cc1 (centres unmarked) | 3.07% |
| CCc1ccc(NC(=O)N[C@H](C(=O)O)C(C)CC)cc1 (some centres unmarked) | 12.4% |
| O=C(COC(=O)c1cnccn1)NCCc1ccccc1 | 10.8% |
| COc1ccc(NCc2nn(CC(=O)c3ccc(Br)cc3)c3[n+]2CCCCC3)cc1.[Br-] | 13% |
| CC(=O)c1cc2c(cc1NC(=O)CCn1cccc1)OCO2 | 3.55% |
| FC(F)(F)c1nc(SCc2ccc(Cl)cc2Cl)n[nH]1 | 4.63% |
| Cc1ccc(NC2CCCN(C(=O)c3cc(C(C)C)[nH]n3)C2)cc1C (centres unmarked) | -0.968% |
| O=C(CNc1cccc2ccccc12)c1ccc([N+](=O)[O-])cc1 | 4.77% |
| CCC(C)NC(=O)CO/N=C/c1ccc(C(=O)OC)cc1 (centres unmarked) | 14.1% |
| COc1cccc(-n2c(SCc3c(C)noc3C)nnc2-c2cccc(S(=O)(=O)N(C)C)c2)c1 | 2.87% |
| Cc1ccccc1NC(=O)c1ccc(CSc2ncccn2)cc1 | 6.41% |
| COCCCNc1nc(N)c([N+](=O)[O-])c(Nc2cc(OC)ccc2OC)n1 | 14.4% |
| CC(CC(=O)Nc1ccc(Cl)c([N+](=O)[O-])c1)c1ccccc1 (centres unmarked) | 11.5% |
| Cc1ccc(C)c(NC(=O)CCC(=O)NNC(=O)c2cccc([N+](=O)[O-])c2)c1 | -7.94% |
| CCOC(=O)N1CCC(NC(=O)C2CCCN(S(C)(=O)=O)C2)CC1 (centres unmarked) | 13.8% |
| COc1cc(-c2c(C#N)c(N)nc3c2CCCC3)ccc1O | 10.2% |
| Cc1ccc2c(c1)C(CCN)C(=O)N2Cc1ccccc1.Cl (centres unmarked) | 5.85% |
| OCC1(Cc2ccc(F)cc2)CCCN(CCc2ccccc2)C1 (centres unmarked) | -0.0287% |
| Cn1c(=O)c2ccccc2n(CC(=O)Nc2ccc3c(c2)OCCO3)c1=O | 13.2% |

| SMILES | hERG current change (%, negative = inhibition) at 1uM |
| --- | --- |
| CCN(CC)S(=O)(=O)c1cc(NC(=O)[C@@H](NC(N)=O)C(C)C)ccc1C | 10.8% |
| NC(=O)Nc1n[nH]c(-c2ccccc2)n1 | 16.4% |
| CC(=O)Oc1ccc(-c2cc3c(OC(C)=O)cc(OC(C)=O)cc3oc2=O)cc1 | 15.7% |
| O=C1c2cccnc2-c2ncccc21 | 10.1% |
| COc1cccc(/C=C2\SC(=O)N(CCC(=O)NNC(=O)c3cccc(Cl)c3)C2=O)c1 | 2.7% |
| COc1ccc2sc(-c3ccccc3OC)c(-c3ccc(OC)nc3)c2c1 | 15% |
| Cc1ccc(N2OC3C(=O)NC(=O)C3C2c2ccco2)cc1 (centres unmarked) | 12.7% |
| O=C(Cc1sc(-c2ccccc2Cl)nc1-c1ccccc1)Nc1ccccc1 | 13.6% |
| COC(=O)CCCC1=CC2=C(c3ccccc3)C(=O)C(C)(OC(=O)C3CCCC3)C(=O)C2=CN1Cc1ccco1 (centres unmarked) | 4.57% |
| Cc1ccc(C(=O)c2ccccc2C(=O)OCC(=O)NC(=O)NC(C)(C)C)cc1 | 7.78% |
| O=C(c1cccc(S(=O)(=O)NCc2ccccc2)c1)N1CCN(c2cccc(C(F)(F)F)c2)CC1 | 13.9% |
| O=C(O)CSCC(=O)NCc1ccccc1Cl | 13.9% |
| COc1ccccc1/C=C/CN1CCN(Cc2ccc(F)cc2)C(CCO)C1 (centres unmarked) | 5.29% |
| Cc1ccc(-c2cc3nc(-c4ccccc4)cc(N4CCC5(CC4)OCCO5)n3n2)cc1 | 10.7% |
| Clc1ccc(Oc2cnns2)c(Cl)c1 | 3.17% |
| CC(C)N1CCN(Cc2ccc3c(c2)OCCO3)CC1CCO (centres unmarked) | 7.42% |
| O=C(Nc1nc2ccc(F)cc2s1)C1=NN(c2ccccc2)C(=O)CC1 | 1.46% |
| CCn1cnc2cc(NCc3ccncc3)ccc21 | 10.4% |
| CC(=NCCN1CCOCC1)c1c(O)n(-c2ccccc2C)c(=O)[nH]c1=O | 4.13% |
| COc1ccc(Cl)cc1NC(=O)CCc1ccccc1 | 12.3% |
